Sequences with one replicate were seen in a single cluster, so their values are uncertain.
What follows are sequences tested on ATP (assay: switch fluorescence ratio, 500 uM ATP over buffer (Cy3 cluster intensity, sum of 5 cycles each) (fold (ratio)); higher = stronger signal-on switching upon ATP binding; sequences stand for … in TCGTCGGCAGCGTCAGATGTGTATAAGAGACAGTTTTTTTTTTTTTTTTTTTTTTTTT…TC). Details: aptamer strand: ATP DNA aptamer (quencher-CACCTGGGGGAGTATTGCGGAGGAAGG + anchor), 100 nM annealed; ATP concentration: 500 uM; one replicate.
Procedure, shortened: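 Clusters with intensities outside 100-1000 RFU were excluded. The remaining Cy3-labelled switching-strand clusters on a modified Illumina MiSeq flow-cell had been annealed to 100 nM quencher-labelled ATP aptamer and imaged in selection buffer, then after 15 min with 500 uM ATP at 22 °C, for five cycles separated by NaOH stripping and re-annealing. The fluorescence ratio, averaged per switch-domain sequence, is each cluster's summed target-cycle Cy3 intensity over its summed buffer-cycle Cy3 intensity.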
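Note: ATP exposure 15 min at 22 °C before imaging.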

**Q.** How did the switch fluorescence ratio turn out when AGAATTTT was run?
**A.** 1.01

**Q.** For AGACAAGATC, which switch fluorescence ratio is on record?
**A.** 1.01

**Q.** Which switch fluorescence ratio does the source give for AGACAAGTAG here?
**A.** 0.966

**Q.** How did the switch fluorescence ratio turn out when AGACAATGTT was run?
**A.** 1

**Q.** How did the switch fluorescence ratio turn out when AGACACAGGG was run?
**A.** 1.05

**Q.** Which switch fluorescence ratio does the source give for AGACACCAGT here?
**A.** 0.983

**Q.** With AGACAGTAAG as the sequence, how does the switch fluorescence ratio read?
**A.** 0.993

**Q.** Which switch fluorescence ratio does the source give for AGACATGTGA here?
**A.** 0.94

**Q.** Which switch fluorescence ratio does the source give for AGACATTGCT here?
**A.** 1.04

**Q.** How did the switch fluorescence ratio turn out when AGACCAGTCT was run?
**A.** 1.03

**Q.** With AGACCCAACT as the sequence, how does the switch fluorescence ratio read?
**A.** 1.06

**Q.** How did the switch fluorescence ratio turn out when AGACCGCTCT was run?
**A.** 1

**Q.** How did the switch fluorescence ratio turn out when AGACCTTACA was run?
**A.** 1.32

**Q.** How did the switch fluorescence ratio turn out when AGACGCAGGT was run?
**A.** 0.993

**Q.** With AGACGCGCCT as the sequence, how does the switch fluorescence ratio read?
**A.** 1.01

**Q.** How did the switch fluorescence ratio turn out when AGACGGCTCG was run?
**A.** 0.964

**Q.** AGACTACCGG was tested. Which switch fluorescence ratio did it give?
**A.** 0.975

**Q.** How did the switch fluorescence ratio turn out when AGACTCAGTT was run?
**A.** 1.04

**Q.** How did the switch fluorescence ratio turn out when AGACTCCTGG was run?
**A.** 1.04

**Q.** For AGAGAACTGG, which switch fluorescence ratio is on record?
**A.** 1.01

**Q.** With AGAGAAGATT as the sequence, how does the switch fluorescence ratio read?
**A.** 1

**Q.** With AGAGAGAAGG as the sequence, how does the switch fluorescence ratio read?
**A.** 0.976

**Q.** How did the switch fluorescence ratio turn out when AGAGAGATTG was run?
**A.** 0.95

**Q.** AGAGAGTCTT was tested. Which switch fluorescence ratio did it give?
**A.** 0.956

**Q.** Which switch fluorescence ratio does the source give for AGAGATATTG here?
**A.** 0.984

**Q.** Which switch fluorescence ratio does the source give for AGAGATCGTA here?
**A.** 0.979

**Q.** How did the switch fluorescence ratio turn out when AGAGCAACCG was run?
**A.** 1

**Q.** How did the switch fluorescence ratio turn out when AGAGCAGATT was run?
**A.** 1.04

**Q.** For AGAGCATTT, which switch fluorescence ratio is on record?
**A.** 1.06

**Q.** How did the switch fluorescence ratio turn out when AGAGCCAGGG was run?
**A.** 1

**Q.** Which switch fluorescence ratio does the source give for AGAGCCCCAT here?
**A.** 0.956

**Q.** How did the switch fluorescence ratio turn out when AGAGCGAGTG was run?
**A.** 1.03

**Q.** AGAGCGTCCG was tested. Which switch fluorescence ratio did it give?
**A.** 1.01

**Q.** Which switch fluorescence ratio does the source give for AGAGCTACTA here?
**A.** 1.06

**Q.** How did the switch fluorescence ratio turn out when AGAGCTTTAA was run?
**A.** 1.01

**Q.** AGAGGATGG was tested. Which switch fluorescence ratio did it give?
**A.** 1.02

**Q.** AGAGGCAGTT was tested. Which switch fluorescence ratio did it give?
**A.** 1

**Q.** For AGAGGGAACG, which switch fluorescence ratio is on record?
**A.** 1.03

**Q.** For AGAGGGATGC, which switch fluorescence ratio is on record?
**A.** 1.01

**Q.** For AGAGGTACGC, which switch fluorescence ratio is on record?
**A.** 0.968

**Q.** AGAGGTTCTG was tested. Which switch fluorescence ratio did it give?
**A.** 0.997

**Q.** With AGAGTACTTC as the sequence, how does the switch fluorescence ratio read?
**A.** 1.02

**Q.** AGAGTAGCAG was tested. Which switch fluorescence ratio did it give?
**A.** 0.974

**Q.** Which switch fluorescence ratio does the source give for AGAGTCAGAA here?
**A.** 0.961

**Q.** For AGAGTCTACA, which switch fluorescence ratio is on record?
**A.** 1.04

**Q.** With AGAGTCTCAG as the sequence, how does the switch fluorescence ratio read?
**A.** 1.02

**Q.** For AGAGTGCAAA, which switch fluorescence ratio is on record?
**A.** 1.01

**Q.** With AGAGTGCCGG as the sequence, how does the switch fluorescence ratio read?
**A.** 1.05

**Q.** With AGAGTGTCAT as the sequence, how does the switch fluorescence ratio read?
**A.** 1.03

**Q.** AGAGTGTTGC was tested. Which switch fluorescence ratio did it give?
**A.** 0.933

**Q.** How did the switch fluorescence ratio turn out when AGAGTTTTAT was run?
**A.** 0.988

**Q.** With AGATAACCGC as the sequence, how does the switch fluorescence ratio read?
**A.** 1.12

**Q.** With AGATAAGTGG as the sequence, how does the switch fluorescence ratio read?
**A.** 0.997

**Q.** How did the switch fluorescence ratio turn out when AGATAATGCC was run?
**A.** 1.03

**Q.** Which switch fluorescence ratio does the source give for AGATACGTTT here?
**A.** 0.989

**Q.** With AGATAGACCA as the sequence, how does the switch fluorescence ratio read?
**A.** 0.965

**Q.** AGATAGTTTC was tested. Which switch fluorescence ratio did it give?
**A.** 1.01

**Q.** AGATATCTAC was tested. Which switch fluorescence ratio did it give?
**A.** 0.996

**Q.** Which switch fluorescence ratio does the source give for AGATCAATAT here?
**A.** 0.967

**Q.** Which switch fluorescence ratio does the source give for AGATCAGAGG here?
**A.** 0.998

**Q.** AGATCATGTA was tested. Which switch fluorescence ratio did it give?
**A.** 0.988

**Q.** With AGATCCGCGT as the sequence, how does the switch fluorescence ratio read?
**A.** 1.18

**Q.** AGATCGAGGT was tested. Which switch fluorescence ratio did it give?
**A.** 1.05

**Q.** Which switch fluorescence ratio does the source give for AGATCGGTAG here?
**A.** 0.96

**Q.** With AGATCTTATA as the sequence, how does the switch fluorescence ratio read?
**A.** 0.977

**Q.** For AGATGAAAG, which switch fluorescence ratio is on record?
**A.** 1.01

**Q.** How did the switch fluorescence ratio turn out when AGATGAATAG was run?
**A.** 1.04

**Q.** AGATGAGCCA was tested. Which switch fluorescence ratio did it give?
**A.** 0.97

**Q.** For AGATGAGGGG, which switch fluorescence ratio is on record?
**A.** 1.02

**Q.** How did the switch fluorescence ratio turn out when AGATGCCACC was run?
**A.** 1.06

**Q.** AGATGCCCTA was tested. Which switch fluorescence ratio did it give?
**A.** 0.956

**Q.** Which switch fluorescence ratio does the source give for AGATGCTTAC here?
**A.** 1.15

**Q.** AGATGGGCA was tested. Which switch fluorescence ratio did it give?
**A.** 0.914

**Q.** With AGATGGGCGC as the sequence, how does the switch fluorescence ratio read?
**A.** 1.05

**Q.** For AGATGGTATG, which switch fluorescence ratio is on record?
**A.** 0.941

**Q.** Which switch fluorescence ratio does the source give for AGATTACTCT here?
**A.** 0.973

**Q.** How did the switch fluorescence ratio turn out when AGATTACTGG was run?
**A.** 1.03

**Q.** How did the switch fluorescence ratio turn out when AGATTAGAGG was run?
**A.** 0.995

**Q.** AGATTCACGG was tested. Which switch fluorescence ratio did it give?
**A.** 1.03

**Q.** With AGATTGCCCG as the sequence, how does the switch fluorescence ratio read?
**A.** 0.922

**Q.** Which switch fluorescence ratio does the source give for AGATTTCCCT here?
**A.** 1.04

**Q.** AGATTTGATA was tested. Which switch fluorescence ratio did it give?
**A.** 0.987

**Q.** Which switch fluorescence ratio does the source give for AGCAAAGGTG here?
**A.** 2.02

**Q.** AGCAACTAAT was tested. Which switch fluorescence ratio did it give?
**A.** 1.05

**Q.** How did the switch fluorescence ratio turn out when AGCAAGCCGG was run?
**A.** 0.966
